# The other results are listed elsewhere or left out.
# B1: SP15308A-bot-339-19-339 (Bacteroides ovatus) (protein)
# chain: ACNNEWEDEQYEQYISFKSPIPAGGEGVTDIYVRYKEDGKVTYRLPIVVSGSTTNTLDREVHIAVDKDTLETLNIERFSIHRPGLWYTALEEDKYDFPKTVHISAGSSVEQLNIDFNLQGIDMLEKWVLPLTIVDDPSYNYKSHPRKNYAKALLRVIPFNNYSGSYTSSAMKVYTYINGKPDTNARTANKRTGYVINDNTVFFYAGLISEDLDKEVREKYKINVHFNEDGTLHMEQGDPTNKMKFELIGTPTYSKTSVMDATRPYLERRYVQIMFEYDFEDFSYGGNGVDVIPIKYKVEGSMTLQRNINTQIPDEDQQIEW
# Columns and labels:
# Test in all cases: glycan array binding signal (z-score within array); higher = stronger binding
# Conditions in all cases: glycan notation: IUPAC condensed, linker removed
# [1] = molecular target: Gal3S(b1-4)Glc
# In short: (§1)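 Glycan array data were curated from 3228 arrays in the Consortium for Functional Glycomics database and kept only where the protein sequence was available. Glycan names were converted to IUPAC-condensed notation, and columns mapping to the same glycan were averaged. The binding signal is a within-array Z-score, averaged across arrays of the same protein sequence at different concentrations or buffers and across linkers. Negative Z-scores can be read as non-binding.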
# [2] = molecular target: Gal3S(b1-4)Glc6S
# In short: as §1
# [3] = molecular target: Gal3S(b1-4)GlcNAc
# In short: as §1
# [4] = molecular target: Gal3S(b1-4)[Fuc(a1-3)]Glc6S
# In short: as §1
# [5] = molecular target: Gal3S(b1-4)[Fuc(a1-3)]GlcNAc
# In short: as §1
# [6] = molecular target: Gal3S(b1-4)[Fuc(a1-3)]GlcNAc6S
# In short: as §1
# [7] = molecular target: Gal3S4S(b1-4)GlcNAc
# In short: as §1
# [8] = molecular target: Gal3S6S(b1-4)GlcNAc
# In short: as §1
# [9] = molecular target: Gal3S6S(b1-4)GlcNAc6S
# In short: as §1
# [10] = molecular target: Gal4S(b1-4)GlcNAc
# In short: as §1
# [11] = molecular target: Gal4S6S(b1-4)GlcNAc
# In short: as §1
# [12] = molecular target: Gal6P(b1-4)GlcNAc
# In short: as §1
# [13] = molecular target: Gal6S(b1-3)GlcNAc
# In short: as §1
# [14] = molecular target: Gal6S(b1-3)GlcNAc6S
# In short: as §1
# [15] = molecular target: Gal6S(b1-4)Glc
# In short: as §1
# [16] = molecular target: Gal6S(b1-4)Glc6S
# In short: as §1
# [17] = molecular target: Gal6S(b1-4)GlcNAc
# In short: as §1
# [18] = molecular target: Gal6S(b1-4)GlcNAc6S
# In short: as §1
# [19] = molecular target: GalNAc(a1-3)Gal
# In short: as §1
# [20] = molecular target: GalNAc(a1-3)GalNAc
# In short: as §1
# [21] = molecular target: GalNAc(a1-3)GalNAc(b1-3)Gal(a1-4)Gal(b1-4)Glc
# In short: as §1
# [22] = molecular target: GalNAc(a1-3)GalNAc(b1-3)Gal(a1-4)Gal(b1-4)GlcNAc
# In short: as §1
# [23] = molecular target: GalNAc(b1-3)Gal
# In short: as §1
# [24] = molecular target: GalNAc(b1-3)Gal(a1-4)Gal(b1-4)GlcNAc
# In short: as §1
# [25] = molecular target: GalNAc(b1-3)Gal(a1-4)Gal(b1-4)GlcNAc(b1-3)Gal(b1-4)Glc
# In short: as §1
# [26] = molecular target: GalNAc(b1-3)Gal(a1-6)Gal(b1-4)Glc
# In short: as §1
# [27] = molecular target: GalNAc(b1-3)GalNAc
# In short: as §1
# [28] = molecular target: GalNAc(b1-3)GlcNAc
# In short: as §1
# [29] = molecular target: GalNAc(b1-4)Gal(b1-4)Glc
# In short: as §1
# [30] = molecular target: GalNAc(b1-4)GlcNAc
# In short: as §1
# [31] = molecular target: GalNAc(b1-4)GlcNAc(b1-2)Man
# In short: as §1
# [32] = molecular target: GalNAc(b1-4)GlcNAc(b1-2)Man(a1-3)[GalNAc(b1-4)GlcNAc(b1-2)Man(a1-6)]Man(b1-4)GlcNAc(b1-4)GlcNAc
# In short: as §1
# [33] = molecular target: GalNAc(b1-4)GlcNAc(b1-3)GalNAc(b1-4)GlcNAc
# In short: as §1
# [34] = molecular target: GalNAc(b1-4)GlcNAc6S
# In short: as §1
# [35] = molecular target: GalNAc(b1-6)GalNAc
# In short: as §1
# [36] = molecular target: GalNAc3S(b1-4)GlcNAc
# In short: as §1
# [37] = molecular target: GalNAc3S(b1-4)GlcNAc3S
# In short: as §1
binder,measurement,setting,value
B1,glycan array binding signal (z-score),[1],0.257
same,glycan array binding signal (z-score),[2],-0.049
same,glycan array binding signal (z-score),[3],-0.26
same,glycan array binding signal (z-score),[4],0.627
same,glycan array binding signal (z-score),[5],-0.285
same,glycan array binding signal (z-score),[6],0.244
same,glycan array binding signal (z-score),[7],0.201
same,glycan array binding signal (z-score),[8],-0.342
same,glycan array binding signal (z-score),[9],0.111
same,glycan array binding signal (z-score),[10],0.159
same,glycan array binding signal (z-score),[11],-0.453
same,glycan array binding signal (z-score),[12],-0.354
same,glycan array binding signal (z-score),[13],-0.111
same,glycan array binding signal (z-score),[14],-0.062
same,glycan array binding signal (z-score),[15],0.17
same,glycan array binding signal (z-score),[16],0.024
same,glycan array binding signal (z-score),[17],-0.335
same,glycan array binding signal (z-score),[18],0.157
same,glycan array binding signal (z-score),[19],0.558
same,glycan array binding signal (z-score),[20],1.35
same,glycan array binding signal (z-score),[21],-0.02
same,glycan array binding signal (z-score),[22],-0.21
same,glycan array binding signal (z-score),[23],-0.419
same,glycan array binding signal (z-score),[24],0.107
same,glycan array binding signal (z-score),[25],-0.168
same,glycan array binding signal (z-score),[26],-0.042
same,glycan array binding signal (z-score),[27],0.046
same,glycan array binding signal (z-score),[28],0.254
same,glycan array binding signal (z-score),[29],-0.085
same,glycan array binding signal (z-score),[30],1.18
same,glycan array binding signal (z-score),[31],-0.103
same,glycan array binding signal (z-score),[32],1.54
same,glycan array binding signal (z-score),[33],0
same,glycan array binding signal (z-score),[34],-0.085
same,glycan array binding signal (z-score),[35],-0.485
same,glycan array binding signal (z-score),[36],-0.022
same,glycan array binding signal (z-score),[37],-0.114

# From the supplement of paper PMC8728848
